# Results as given in the supplement of paper PMC8728848.
# The other results are listed elsewhere or left out.
# Experiments:
# Assay in all cases: glycan array binding signal (z-score within array); higher = stronger binding
# Details in all cases: glycan notation: IUPAC condensed, linker removed
# [1] = target: Gal(b1-4)GlcNAc(b1-3)Gal(b1-4)GlcNAc(b1-3)Gal(b1-4)GlcNAc(b1-3)Gal(b1-4)GlcNAc(b1-2)Man(a1-3)[Gal(b1-4)GlcNAc(b1-3)Gal(b1-4)GlcNAc(b1-3)Gal(b1-4)GlcNAc(b1-3)Gal(b1-4)GlcNAc(b1-2)Man(a1-6)]Man(b1-4)GlcNAc(b1-4)GlcNAc
# How it was run: (§1)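 Arrays were curated from the Consortium for Functional Glycomics database, 3228 in total, and kept only where the protein sequence was available. Binding is expressed as a within-array Z-score. This score was averaged across arrays of the same protein sequence at different concentrations or buffers and across linkers, and negative values can be read as non-binding.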
# [2] = target: Gal(b1-4)GlcNAc(b1-3)Gal(b1-4)GlcNAc(b1-3)Gal(b1-4)GlcNAc(b1-3)Gal(b1-4)GlcNAc(b1-2)Man(a1-3)[Gal(b1-4)GlcNAc(b1-3)Gal(b1-4)GlcNAc(b1-3)Gal(b1-4)GlcNAc(b1-3)Gal(b1-4)GlcNAc(b1-2)Man(a1-6)]Man(b1-4)GlcNAc(b1-4)[Fuc(a1-6)]GlcNAc
# How it was run: as §1
# [3] = target: Gal(b1-4)GlcNAc(b1-3)Gal(b1-4)GlcNAc(b1-3)Gal(b1-4)GlcNAc(b1-3)Gal(b1-4)GlcNAc(b1-2)[Gal(b1-4)GlcNAc(b1-3)Gal(b1-4)GlcNAc(b1-3)Gal(b1-4)GlcNAc(b1-3)Gal(b1-4)GlcNAc(b1-6)]Man(a1-6)[Gal(b1-4)GlcNAc(b1-3)Gal(b1-4)GlcNAc(b1-3)Gal(b1-4)GlcNAc(b1-3)Gal(b1-4)GlcNAc(b1-2)Man(a1-3)]Man(b1-4)GlcNAc(b1-4)[Fuc(a1-6)]GlcNAc
# How it was run: as §1
# [4] = target: Gal(b1-4)GlcNAc(b1-3)Gal(b1-4)GlcNAc(b1-3)Gal(b1-4)GlcNAc(b1-3)Gal(b1-4)GlcNAc(b1-3)Gal(b1-4)GlcNAc(b1-2)Man(a1-3)[Gal(b1-4)GlcNAc(b1-3)Gal(b1-4)GlcNAc(b1-3)Gal(b1-4)GlcNAc(b1-3)Gal(b1-4)GlcNAc(b1-3)Gal(b1-4)GlcNAc(b1-2)Man(a1-6)]Man(b1-4)GlcNAc(b1-4)GlcNAc
# How it was run: as §1
# [5] = target: Gal(b1-4)GlcNAc(b1-3)Gal(b1-4)GlcNAc(b1-3)Gal(b1-4)GlcNAc(b1-3)Gal(b1-4)GlcNAc(b1-3)Gal(b1-4)GlcNAc(b1-2)Man(a1-3)[Gal(b1-4)GlcNAc(b1-3)Gal(b1-4)GlcNAc(b1-3)Gal(b1-4)GlcNAc(b1-3)Gal(b1-4)GlcNAc(b1-3)Gal(b1-4)GlcNAc(b1-2)Man(a1-6)]Man(b1-4)GlcNAc(b1-4)[Fuc(a1-6)]GlcNAc
# How it was run: as §1
# [6] = target: Gal(b1-4)GlcNAc(b1-3)Gal(b1-4)GlcNAc(b1-3)Gal(b1-4)GlcNAc(b1-3)Gal(b1-4)GlcNAc(b1-3)Gal(b1-4)GlcNAc(b1-2)[Gal(b1-4)GlcNAc(b1-3)Gal(b1-4)GlcNAc(b1-3)Gal(b1-4)GlcNAc(b1-3)Gal(b1-4)GlcNAc(b1-3)Gal(b1-4)GlcNAc(b1-6)]Man(a1-6)[Gal(b1-4)GlcNAc(b1-3)Gal(b1-4)GlcNAc(b1-3)Gal(b1-4)GlcNAc(b1-3)Gal(b1-4)GlcNAc(b1-3)Gal(b1-4)GlcNAc(b1-2)Man(a1-3)]Man(b1-4)GlcNAc(b1-4)[Fuc(a1-6)]GlcNAc
# How it was run: as §1
# [7] = target: Gal(b1-4)GlcNAc(b1-3)Gal(b1-4)GlcNAc(b1-3)Gal(b1-4)GlcNAc(b1-3)Gal(b1-4)GlcNAc(b1-3)Gal(b1-4)GlcNAc(b1-3)Gal(b1-4)GlcNAc(b1-2)Man(a1-3)[Gal(b1-4)GlcNAc(b1-3)Gal(b1-4)GlcNAc(b1-3)Gal(b1-4)GlcNAc(b1-3)Gal(b1-4)GlcNAc(b1-3)Gal(b1-4)GlcNAc(b1-3)Gal(b1-4)GlcNAc(b1-2)Man(a1-6)]Man(b1-4)GlcNAc(b1-4)GlcNAc
# How it was run: as §1
# [8] = target: Gal(b1-4)GlcNAc(b1-3)Gal(b1-4)GlcNAc(b1-3)GalNAc
# How it was run: as §1
# [9] = target: Gal(b1-4)GlcNAc(b1-3)Gal(b1-4)GlcNAc(b1-3)[Gal(b1-4)GlcNAc(b1-3)Gal(b1-4)GlcNAc(b1-6)]GalNAc
# How it was run: as §1
# [10] = target: Gal(b1-4)GlcNAc(b1-3)Gal(b1-4)GlcNAc(b1-6)[Gal(b1-3)]GalNAc
# How it was run: as §1
# [11] = target: Gal(b1-4)GlcNAc(b1-3)Gal(b1-4)[Fuc(a1-3)]GlcNAc(b1-3)Gal(b1-4)[Fuc(a1-3)]GlcNAc
# How it was run: as §1
# [12] = target: Gal(b1-4)GlcNAc(b1-3)GalNAc
# How it was run: as §1
# [13] = target: Gal(b1-4)GlcNAc(b1-3)[Fuc(a1-3)GlcNAc(b1-6)]Gal(b1-4)Glc
# How it was run: as §1
# [14] = target: Gal(b1-4)GlcNAc(b1-3)[Gal(b1-4)GlcNAc(b1-6)]Gal(b1-4)GlcNAc
# How it was run: as §1
# [15] = target: Gal(b1-4)GlcNAc(b1-3)[GlcNAc(b1-6)]Gal(b1-4)GlcNAc
# How it was run: as §1
# [16] = target: Gal(b1-4)GlcNAc(b1-6)Gal(b1-4)GlcNAc
# How it was run: as §1
# [17] = target: Gal(b1-4)GlcNAc(b1-6)GalNAc
# How it was run: as §1
# [18] = target: Gal(b1-4)GlcNAc(b1-6)[Gal(b1-3)]GalNAc
# How it was run: as §1
# [19] = target: Gal(b1-4)GlcNAc(b1-6)[Gal(b1-4)GlcNAc(b1-3)]GalNAc
# How it was run: as §1
# Gal(b1-4)GlcNAc6P = target: Gal(b1-4)GlcNAc6P
# How it was run: as §1
# Gal(b1-6)Gal = target: Gal(b1-6)Gal
# How it was run: as §1
# Gal3S(b1-3)GalNAc = target: Gal3S(b1-3)GalNAc
# How it was run: as §1
# Gal3S(b1-3)GlcNAc = target: Gal3S(b1-3)GlcNAc
# How it was run: as §1
binder,measurement,setting,value
"Clec2 (Mus musculus), Q9JL99 (protein) MQDEDGYITLNIKPRKQALSSAEPASSWWRVMALVLLISSMGLVVGLVALGIMSVTQQKYLLAEKENLSATLQQLAKKFCQELIRQSEIKTKSTFEHKCSPCATKWRYHGDSCYGFFRRNLTWEESKQYCTEQNATLVKTASQSTLDYIAERITSVRWIGLSRQNSKKDWMWEDSSVLRKNGINLSGNTEENMNCAYLHNGKIHPASCKERHYLICERNAGMTRVDQLL",glycan array binding signal (z-score),[1],-0.166
same,glycan array binding signal (z-score),[2],-0.457
same,glycan array binding signal (z-score),[3],-0.401
same,glycan array binding signal (z-score),[4],-0.216
same,glycan array binding signal (z-score),[5],-0.583
same,glycan array binding signal (z-score),[6],-0.575
same,glycan array binding signal (z-score),[7],-0.516
same,glycan array binding signal (z-score),[8],-0.51
same,glycan array binding signal (z-score),[9],-0.118
same,glycan array binding signal (z-score),[10],-0.123
same,glycan array binding signal (z-score),[11],0.099
same,glycan array binding signal (z-score),[12],-0.487
same,glycan array binding signal (z-score),[13],-0.171
same,glycan array binding signal (z-score),[14],-0.65
same,glycan array binding signal (z-score),[15],-0.566
same,glycan array binding signal (z-score),[16],-0.465
same,glycan array binding signal (z-score),[17],0.915
same,glycan array binding signal (z-score),[18],-0.432
same,glycan array binding signal (z-score),[19],0.236
same,glycan array binding signal (z-score),Gal(b1-4)GlcNAc6P,1.94
same,glycan array binding signal (z-score),Gal(b1-6)Gal,0.006
same,glycan array binding signal (z-score),Gal3S(b1-3)GalNAc,1.3
same,glycan array binding signal (z-score),Gal3S(b1-3)GlcNAc,-0.246
